In PMC3000556 (FEBS letters, 2010):

B1: Full-length (576 aa) human coilin fused to GST (natural protein)
chain: MAASETVRLRLQFDYPPPATPHCTAFWLLVDLNRCRVVTDLISLIRQRFGFSSGAFLGLYLEGGLLPPAESARLVRDNDCLRVKLEERGVAENSVVISNGDINLSLRKAKKRAFQLEEGEETEPDCKYSKKHWKSRENNNNNEKVLDLEPKAVTDQTVSKKNKRKNKATCGTVGDDNEEAKRKSPKKKEKCEYKKKAKNPKSPKVQAVKDWANQRCSSPKGSARNSLVKAKRKGSVSVCSKESPSSSSESESCDESISDGPSKVTLEARNSSEKLPTELSKEEPSTKNTTADKLAIKLGFSLTPSKGKTSGTTSSSSDSSAESDDQCLMSSSTPECAAGFLKTVGLFAGRGRPGPGLSSQT[letters of about 200 residues left out]
B2: N-terminal T7-tagged Ku80 (N-565aa) fragment (domain or fragment)
chain: not shown

Experiments:
[1] = target: Soluble full length T7-tagged Ku80 (N-732aa) (UniProt P13010); experiment: pull-down
[2] = target: B1; experiment: pull-down

Row | binding result [1] | binding result [2] | Binder
1 | binds | – | B1
2 | – | binds | B2
